Measurements: EPA's CvTdb concentration-time database
The source gives many values for each of these; only a part stands here.

How the values were obtained:
Test in all cases: concentration in plasma after dosing
Rat [1] = settings: 12 h; dosed: Perfluorohexane-1-sulphonic acid – potassium salt; 16 mg/kg; oral; Female; F344
Rat [2] = settings: dosed: Perfluorohexane-1-sulphonic acid – potassium salt, 16 mg/kg, oral, Female, Harlan Sprague Dawley
Rat [3] = settings: dosed: Perfluorohexane-1-sulphonic acid – potassium salt, 4 mg/kg, Female, F344
Rat [4] = settings: 24 h; dosed: Perfluorohexane-1-sulphonic acid – potassium salt; 16 mg/kg; oral; Female; Harlan Sprague Dawley
Rat [5] = settings: dosed: Perfluorohexane-1-sulphonic acid – potassium salt, 4 mg/kg, Female, Harlan Sprague Dawley
Rat [6] = settings: 1200 h; dosed: Perfluorohexane-1-sulphonic acid – potassium salt; 16 mg/kg; oral; Male; Harlan Sprague Dawley
Rat [7] = settings: 24 h; dosed: Perfluorohexane-1-sulphonic acid – potassium salt; 16 mg/kg; oral; Female; F344
Rat [8] = settings: dosed: Perfluorohexane-1-sulphonic acid – potassium salt, 4 mg/kg, Female, F344; remark: listed apart in the source
Rat [9] = settings: dosed: Perfluorohexane-1-sulphonic acid – potassium salt, 4 mg/kg, oral, Female, Harlan Sprague Dawley
Rat [10] = settings: dosed: Perfluorohexane-1-sulphonic acid – potassium salt, 4 mg/kg, oral, Female, Harlan Sprague Dawley; remark: listed apart in the source
Rat [11] = settings: dosed: Perfluorohexane-1-sulphonic acid – potassium salt, 4 mg/kg, Female, F344; remark: listed apart in the source
Rat [12] = settings: dosed: Perfluorohexane-1-sulphonic acid – potassium salt, 16 mg/kg, oral, Male, F344
Rat [13] = settings: 3 h; dosed: Perfluorohexane-1-sulphonic acid – potassium salt; 16 mg/kg; oral; Female; F344
Rat [14] = settings: dosed: Fluorotelomer alcohol 8+2, 160 mg/kg, oral, Female, Harlan Sprague Dawley
Rat [15] = settings: dosed: Fluorotelomer alcohol 8+2, 40 mg/kg, oral, Female, Harlan Sprague Dawley
Rat [16] = settings: 9 h; dosed: Fluorotelomer alcohol 8+2; 80 mg/kg; oral; Female; Harlan Sprague Dawley
Rat [17] = settings: dosed: Fluorotelomer alcohol 8+2, 40 mg/kg, oral, Female, Harlan Sprague Dawley; remark: listed apart in the source
Rat [18] = settings: dosed: Fluorotelomer alcohol 8+2, 160 mg/kg, oral, Female, Harlan Sprague Dawley; remark: listed apart in the source
Rat [19] = settings: dosed: Fluorotelomer alcohol 8+2, 40 mg/kg, oral, Female, Harlan Sprague Dawley; remark: listed apart in the source
Rat [20] = settings: dosed: Fluorotelomer alcohol 8+2, 48 mg/kg, oral, Male, Harlan Sprague Dawley
Rat [21] = settings: dosed: Fluorotelomer alcohol 8+2, 160 mg/kg, oral, Female, Harlan Sprague Dawley; remark: listed apart in the source
Rat [22] = settings: dosed: Fluorotelomer alcohol 8+2, 40 mg/kg, oral, Female, Harlan Sprague Dawley; remark: listed apart in the source
Rat [23] = settings: dosed: Isoeugenol, 140 mg/kg, oral, Female, F344/N
Rat [24] = settings: dosed: Isoeugenol, 17 mg/kg, iv, Male, F344/N
Rat [25] = settings: dosed: Isoeugenol, 70 mg/kg, oral, Female, F344/N
Rat [26] = settings: dosed: Isoeugenol, 140 mg/kg, oral, Female, F344/N; remark: listed apart in the source
Rat [27] = settings: dosed: Isoeugenol, 17 mg/kg, iv, Male, F344/N; remark: listed apart in the source
Rat [28] = settings: dosed: Isoeugenol, 70 mg/kg, oral, Female, F344/N; remark: listed apart in the source
Rat [29] = settings: dosed: Isoeugenol, 140 mg/kg, oral, Male, F344/N
Rat [30] = settings: dosed: Isoeugenol, 17 mg/kg, iv, Female, F344/N
Rat [31] = settings: dosed: Isoeugenol, 17 mg/kg, iv, Male, F344/N; remark: listed apart in the source
Rat [32] = settings: dosed: Isoeugenol, 140 mg/kg, oral, Male, F344/N; remark: listed apart in the source

O=S(=O)([O-])C(F)(F)C(F)(F)C(F)(F)C(F)(F)C(F)(F)C(F)(F)F.[K+] [Perfluorohexane-1-sulphonic acid – potassium salt]
Settings	concentration in plasma [ng/mL]
Rat [1]	134000
Rat [4]	61100
Rat [6]	20300
Rat [7]	117000
Rat [13]	117000

Settings	concentration in plasma [ng/mL]
Rat [2], 0.25 h	39800
Rat [2], 288 h	1950
Rat [3], 1 h	41800
Rat [3], 24 h	31300
Rat [3], 1200 h	7110
Rat [5], 1 h	35000
Rat [5], 48 h	10200
Rat [8], 0.5 h	43700
Rat [8], 12 h	25000
Rat [8], 864 h	7990
Rat [9], 1 h	15300
Rat [9], 24 h	19400
Rat [9], 288 h	407
Rat [10], 3 h	21900
Rat [10], 48 h	13500
Rat [10], 528 h	32.6
Rat [11], 0.5 h	43300
Rat [11], 12 h	24200
Rat [11], 1200 h	6230
Rat [12], 0.25 h	33200
Rat [12], 864 h	26000

O=C(O)CCC(F)(F)C(F)(F)C(F)(F)C(F)(F)C(F)(F)C(F)(F)C(F)(F)F [Fluorotelomer acid 7+3]
Settings	concentration in plasma [ng/mL]
Rat [14], 48 h	1170
Rat [14], 192 h	115
Rat [15], 0.5 h	371
Rat [15], 9 h	1390
Rat [17], 0.25 h	83.2
Rat [17], 6 h	2380
Rat [18], 48 h	2260
Rat [18], 192 h	86.5
Rat [19], 0.25 h	81.4
Rat [19], 6 h	2030
Rat [20], 0.75 h	83.7
Rat [20], 12 h	297
Rat [21], 0.25 h	125
Rat [21], 6 h	10200
Rat [22], 0.75 h	828
Rat [22], 12 h	1470

Settings	concentration in plasma [ng/mL]
Rat [16]	4830

C/C=C/c1ccc(O)c(OC)c1 [Isoeugenol]
Settings	concentration in plasma [ng/mL]
Rat [23], 2 min	374
Rat [23], 10 h	44.3
Rat [24], 1.5 h	125
Rat [24], 10 min	4260
Rat [25], 1.5 h	219
Rat [25], 10 min	2080
Rat [26], 1 h	1030
Rat [26], 4 h	595
Rat [27], 2 min	10400
Rat [27], 4 h	16
Rat [28], 0.75 h	283
Rat [28], 2 h	179
Rat [29], 0.5 h	427
Rat [29], 10 h	55.3
Rat [30], 5 h	30
Rat [30], 5 min	6480
Rat [31], 1 h	216
Rat [31], 2.5 h	64.9
Rat [32], 1 h	171
Rat [32], 8 h	139
